# Source: publication PMC4336329 (PLoS ONE, 2015)
# About 2,200 (0.71%) of roughly 310,000 compounds showed an effect of 50% or more. Effects have a minus sign here. The list shows a part of the results.
# Target: human ether-à-go-go-related gene (hERG) potassium channel (human, UniProt Q12809)
# Assay: primary screen, population patch clamp on CHO cells stably expressing hERG
# human ether-à-go-go-related gene (hERG) potassium channel, sequence (Q12809 whole entry, looked up): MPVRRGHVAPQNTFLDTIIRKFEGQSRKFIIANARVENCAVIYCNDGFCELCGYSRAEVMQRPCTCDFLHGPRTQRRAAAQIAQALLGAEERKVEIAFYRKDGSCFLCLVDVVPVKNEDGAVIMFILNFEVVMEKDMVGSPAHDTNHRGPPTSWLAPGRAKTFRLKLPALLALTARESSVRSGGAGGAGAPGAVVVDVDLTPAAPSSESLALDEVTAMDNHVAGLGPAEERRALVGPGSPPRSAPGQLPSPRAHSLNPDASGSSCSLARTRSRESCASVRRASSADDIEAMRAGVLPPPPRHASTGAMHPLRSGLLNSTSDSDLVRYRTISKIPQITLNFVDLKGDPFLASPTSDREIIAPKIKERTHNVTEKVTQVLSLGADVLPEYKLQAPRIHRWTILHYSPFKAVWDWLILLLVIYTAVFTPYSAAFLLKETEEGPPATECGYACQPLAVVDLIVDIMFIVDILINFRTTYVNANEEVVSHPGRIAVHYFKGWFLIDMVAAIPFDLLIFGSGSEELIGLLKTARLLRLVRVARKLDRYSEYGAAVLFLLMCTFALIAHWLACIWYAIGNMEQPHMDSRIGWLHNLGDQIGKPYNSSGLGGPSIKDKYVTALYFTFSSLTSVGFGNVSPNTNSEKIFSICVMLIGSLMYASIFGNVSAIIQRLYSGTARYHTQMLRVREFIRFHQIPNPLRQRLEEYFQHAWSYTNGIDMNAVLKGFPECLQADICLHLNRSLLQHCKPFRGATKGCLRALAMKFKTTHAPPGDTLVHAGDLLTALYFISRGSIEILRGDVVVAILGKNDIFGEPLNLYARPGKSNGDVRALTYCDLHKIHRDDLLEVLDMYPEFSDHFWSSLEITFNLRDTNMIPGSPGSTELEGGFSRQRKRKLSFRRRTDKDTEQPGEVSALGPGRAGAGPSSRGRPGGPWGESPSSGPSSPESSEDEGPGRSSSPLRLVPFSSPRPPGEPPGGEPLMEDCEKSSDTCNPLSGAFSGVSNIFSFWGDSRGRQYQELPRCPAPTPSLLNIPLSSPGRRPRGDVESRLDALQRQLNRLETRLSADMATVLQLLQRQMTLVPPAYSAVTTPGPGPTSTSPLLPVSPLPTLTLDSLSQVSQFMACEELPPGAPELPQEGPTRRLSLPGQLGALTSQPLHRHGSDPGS
row,SMILES,"hERG current change (%, negative = inhibition) at 1uM [%]"
1,Cl.NC(c1ccccc1)c1cccnc1 (centres unmarked),13.4
2,Cc1nnc(SCc2ccccc2)n1CC1CCCO1 (centres unmarked),9
3,COc1ccccc1NC(=O)N1CCC(NC(=O)C(Cc2ccccc2F)NC(C)=O)CC1 (centres unmarked),10.4
4,Cn1c(SCC(=O)N2CCCC2)nc2cccnc21,14.2
5,CN1CCC(CNC(=O)Nc2ccccc2)(c2ccccc2)CC1,13.8
6,Cc1ccc(-c2sc(-c3ccccc3)nc2CC(=O)Nc2ccccc2F)cc1,7.28
7,Cc1cc(C)n(Cc2ccc(C(=O)N/N=C/c3ccc(-c4ccc([N+](=O)[O-])cc4)o3)o2)n1,6.96
8,CC(C)NCC(O)COC1CCC(C(C)(C)C)CC1.Cl (centres unmarked),12.7
9,O=C(CSc1nc(-c2ccccc2)c(-c2ccccc2)o1)N1CCOCC1,1.5
10,CCCCOn1c(C)c(C(=O)OCC)c2c3no[n+]([O-])c3ccc21,15.8
11,COc1cccc2cc(-c3nnc(SCC(=O)NCc4ccccc4)n3C)oc12,15.6
12,COc1cccc(OCCNc2cc(N3CCOCC3)ccc2[N+](=O)[O-])c1,10.5
13,CCn1c(N)nc2ccccc21,7.84
14,NS(=O)(=O)c1ccc(CCNc2cc(=O)n(Cc3ccc(F)cc3)c(=O)[nH]2)cc1,3.62
15,O=C(COC(=O)c1ccc2c(c1)OCO2)Nc1ccccc1,11.6
16,N#Cc1ccccc1S(=O)(=O)N1CCN(CC(=O)NCC2(N3CCOCC3)CCCCC2)CC1,-2.78
17,CC1CCc2sc(C(=O)Nc3ccc(C(N)=O)cc3)cc2C1 (centres unmarked),8.85
18,CCN1CCCC1CNC(=O)c1ccc2c(c1)NC(=O)/C(=C\c1ccc(C)cc1)S2 (centres unmarked),11.8
19,COc1ccccc1CC(=O)NCc1csc(-c2cccs2)n1,16.6
20,Cc1ncc(CO)c2cc(-c3nnc(Nc4ccc5c(c4)OCO5)s3)c(=O)oc12,10.4
21,Cc1ncsc1C(=O)N1CCCC(CNS(=O)(=O)c2cccs2)C1 (centres unmarked),7.62
22,O=C(N/N=C/c1ccccc1O)C(=O)Nc1ccccn1,16.8
23,Cc1ccc(C(=O)N(CN2CCCC2=O)c2ccc(F)cc2)cc1,2.71

row,SMILES,"hERG current change (%, negative = inhibition) at 1uM [%]"
1,CCc1cc(=O)oc2cc(C)cc(OCC(=O)NCCCN3CCOCC3)c12,7.83
2,Cc1onc(-c2c(Cl)cccc2Cl)c1C(=O)Nc1ccc(Cl)cn1,11.3
3,O=[N+]([O-])c1cccc(NC(=S)NCCc2ccccc2)c1,11.5
4,Cc1ccc2c(n1)CC(C)(C)C/C2=N\O,5.55
5,CCn1cc(S(=O)(=O)Nc2nc3ccc(OC)cc3s2)cn1,12.5
6,Cc1cccc(/C=N/c2sc3c(c2C(=O)OC(C)(C)C)CCN(C)C3)c1O,-7.84
7,C/C=C(/C)C(=O)Nc1cccc(C2=NOC3(C2)C[C@@H](C(N)=O)N(C(=O)[C@H]2CCC(=O)N2)C3)c1 (some centres unmarked),6.28
8,Cc1cc(NC(=O)CCC(=O)N2CCC3(CC2)OCCO3)no1,13.1
9,CN1CCN(c2nc3c(c(=O)[nH]c(=O)n3C)n2Cc2ccc([N+](=O)[O-])cc2)CC1,-15.1
10,O=C(CCc1nnc(-c2ccccc2)o1)NC1CCCCC1,9.69
11,Cc1cccc(NC(=O)C23CCC(C)(C2Br)C3(C)C)c1 (centres unmarked),12.2
12,COc1cccc(-c2c(NC(=O)c3ccco3)n(-c3ccc(C)cc3)nc(C)c2=O)c1,-6.94
13,c1ccc(OCCn2c(-c3ccco3)nc3ccccc32)cc1,4.24
14,Cc1cc(C)cc(OCC(O)Cn2nc(C)cc2C)c1 (centres unmarked),-0.894
15,Cc1cc(C)n2nc(C(=O)N3CCN(Cc4ccc5c(c4)OCO5)CC3)nc2n1,15.9
16,O=C(O)c1c2c(nc3ccc(S(=O)(=O)N4CCC(C(=O)N5CCCCC5)CC4)cc13)CCCC2,0.42
17,O=C(NN1C(=O)C2C3C=CC(O3)C2C1=O)c1ccccc1 (centres unmarked),6.38
18,CCOC(=O)Cc1ncccc1C(=O)Nc1ccc(OC)cc1,14
19,O=C(NCc1ccccc1)C1=C[C@H](C2CC2)C[C@H](OCCCCO)O1,4.22
20,N#Cc1cccc(-n2c(-c3ccccc3)nnc2-c2ccccc2)c1C#N,-6.06
21,COc1ccc(CNC(=O)N2CCN(S(=O)(=O)c3ccccc3F)CC2)cc1,15
22,Cc1ccc(S(=O)(=O)NCCNc2ccc([N+](=O)[O-])cc2)cc1,3.05
23,COc1ccc(C(=O)N[C@H](C(=O)OCc2cc(=O)oc3cc(C)ccc23)C(C)C)cc1,-11.2

row,SMILES,"hERG current change (%, negative = inhibition) at 1uM [%]"
1,CSc1cccc(NC(C)=O)c1,6.65
2,CC(=O)Nc1ccc(S(=O)(=O)N(Cc2ccccc2)C(C)C)cc1,2.91
3,COc1ccc(S(=O)(=O)N2CCOC2CNC(=O)C(=O)NCCc2c[nH]c3ccccc23)cc1C (centres unmarked),5.98
4,CC(=O)c1nn(-c2ccccc2)cc1C(=O)c1cccc(Br)c1,8.59
5,COc1ccc2c(c1)C1OCCC1C(c1ccco1)N2 (centres unmarked),5.93
6,Cc1[nH]nc2nc(SCC(=O)NCC3CCCO3)n(-c3ccc(Br)cc3)c(=N)c12 (centres unmarked),4.63
7,COc1ccc(OC)c(CN2CCN(C(=O)Cc3ccccc3)CC2)c1.O=C(O)C(=O)O,17.6
8,COCCOC(=O)C1=C(C)Nc2ncnn2C1c1ccco1 (centres unmarked),6.75
9,COc1cc(C(=O)NCC(c2cccs2)N2CCOCC2)cc(OC)c1OC (centres unmarked),6.68
10,COc1ccc2c(c1)c1c(n2C(C)=O)C(OC(C)=O)=NCC1,2.42
11,Cc1cc([N+](=O)[O-])ccc1NCc1cccc2ccccc12,14.6
12,Cc1ccc(NC(=O)C(=O)NN=C2CCCC2)cc1C,27.2
13,O=C(CN1C(=O)NC(c2ccccc2)(c2ccccc2)C1=O)N1CCN(c2ccccc2F)CC1,5.83
14,Cc1cccc(CN2CCc3c(OCC(=O)NCc4ccco4)cccc3C2=O)c1,-8.38
15,Cc1nc(NC(=S)NC(=O)c2ccccc2)sc1C(=O)N(C)C,0.13
16,O=C(OC1CO[C@H]2O[C@@H]1[C@H](OC(=O)c1ccccc1)[C@H]2OC(=O)c1ccccc1)c1ccccc1 (some centres unmarked),12.2
17,COCCn1c(SCC(=O)N2CCCc3ccccc32)nnc1-c1ccoc1C,-2.64
18,CCc1cccc(NC2c3ccccc3C(=O)N2c2ccc(C)cn2)c1 (centres unmarked),7.48
19,CCCCN(CC)CCNC(=O)Cn1cnc2sc(C)c(S(=O)(=O)N3CCC(C)CC3)c2c1=O,10.5
20,Cc1cc(=O)c2cc(NC(=O)c3ccccc3Cl)ccc2[nH]1,14.4
21,Cc1n[nH]c(C)c1S(=O)(=O)N1CCCC(C(=O)N2CCc3ccccc32)C1 (centres unmarked),4.86
22,CN(C)c1ccc2c(c1)Sc1cc(N(C)C)ccc1N2C(=O)c1ccccc1,6.64
23,CCOC(=O)c1ccc(NC(=O)CCNS(=O)(=O)c2cccs2)cc1,15.4

row,SMILES,"hERG current change (%, negative = inhibition) at 1uM [%]"
1,NC(=O)NCCc1ccccc1,4.61
2,CCOc1ccccc1NC(=O)CCS(=O)(=O)c1ccc(Br)cc1,6
3,O=[N+]([O-])c1ccc(C2CNC(c3ccccc3)O2)cc1 (centres unmarked),14.5
4,Cn1c(=O)c(-c2ccccc2)nc2ccccc21,6.33
5,O=C(Cc1ccc(Cl)cc1)NCc1ccccc1Cl,12.8
6,CCCOc1ccc(-c2nc(N)n[nH]2)cc1,-4.68
7,Cc1nn2c(c1-c1ccccc1)NC1=C(C(=O)CCC1)C2c1ccccc1 (centres unmarked),-5.57
8,c1ccc(CCc2cc3ccccc3[nH]2)cc1,8.75
9,Cc1ccc(SCC(=O)OCC(=O)N(CCC#N)c2ccccc2)cc1,14.2
10,Cc1ccc(NC(=O)CSc2ncnc3ccccc23)cc1S(=O)(=O)N1CCCCCC1,11
11,CCOc1ncccc1C(=O)Nc1cc(S(=O)(=O)N2CCCCC2)ccc1OC,4.79
12,O=C1C2CCCN2C(c2cccnc2)N1c1cccc(Cl)c1 (centres unmarked),1.06
13,COc1ccc(C)c2sc(N3CCCC3)nc12,-12
14,O=C(COC(=O)c1ccccc1O)Nc1cc(S(=O)(=O)N2CCCCCC2)ccc1Cl,7.15
15,COc1ccc(-c2nnc(COc3ccc(Br)cc3C)o2)cc1,13.3
16,c1csc(-c2nc(NCC3CCCO3)c3ccccc3n2)c1 (centres unmarked),9.69
17,Oc1c(CN2CCCC(C(F)(F)F)C2)cc(Cl)c2ccccc12 (centres unmarked),8.18
18,CC(C)NC(=O)Cn1c(=O)n(CC(=O)N2CCCCC2)c(=O)c2sccc21,12.2
19,CCCCn1ccnc1C(=O)c1cc(S(=O)(=O)N2CCOCC2)ccc1C,11.3
20,Cn1c(Cn2c(=O)sc3ccccc32)nnc1SCC(=O)NCc1ccccc1,1.21
